The whole screen tested about 310,000 compounds, of which about 18,000 (5.8%) were called active. Inconclusive means that the source gave no clear call. Such entries were picked first, then a sample of the others. The call rests on the fitted dose curve; in most records, active means well fitted inhibition curve with a large enough effect; inconclusive means small, poorly fitted or top-dose-only effect, or another doubt; inactive means no such curve, though single readings can be large or run the other way. Potencies of inconclusive entries are left out as doubtful fits.
test: Primary qHTS for delayed death inhibitors of the malarial parasite plastid, 48 hour incubation; details: P. falciparum luciferase growth in erythrocytes; series mostly up to 28.7 µM
Outline: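 First compound was added to culture medium, then infected red cells at 0.1% parasitemia and 2% hematocrit (final). After incubation at 37 C under 5% CO2, luciferase detection reagent was dispensed and light output recorded.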
Potency means the concentration at half of the fitted maximal effect; tags describe the fitted curve by direction and shape.

Row | Structure (SMILES) | Potency
1 | CCOc1ccc(C2c3c(oc4ccccc4c3=O)C(=O)N2CCCN2CCOCC2)cc1 (configuration not stated) | inconclusive [inhibitor, single point]
2 | Fc1ccccc1NC(=S)N(CCN1CCCCCC1)Cc1cccs1 | inconclusive [inhibitor, single point]
3 | COC(=O)[C@@]1(Cc2ccc(F)cc2)[C@H]2c3cc(C(=O)N(C)C)n(CCc4ccc(OC)c(Br)c4)c3C[C@H]2CN1C(=O)c1ccccc1 | inconclusive [inhibitor, full curve]
4 | CC1CC(C)(C)CC2(C1)NC(=O)N(CC(=O)N1CCN(S(=O)(=O)c3cccs3)CC1)C2=O (configuration not stated) | active: 9.28 µM
5 | CCN(C(=O)c1ccc2c(SCC(=O)O)c3c(nc2c1)CCC3)c1cc(Cl)ccc1OC | inconclusive [inhibitor, single point]
6 | COc1ccc(S(=O)(=O)N2CCCCC2)cc1NC(=O)CCc1nc2ccccc2c(=O)[nH]1 | inconclusive [inhibitor, single point]
7 | CC(C)OCCCN(C)C1CCN(S(=O)(=O)c2ccc(-c3ccc(=O)[nH]n3)s2)CC1 | inconclusive [inhibitor, full curve]
8 | Fc1cccc(NC(=S)Nc2cccc3ccccc23)c1 | inactive
9 | Cc1cc(C)c(S(=O)(=O)Nc2ncccc2C)c(C)c1 | inactive
10 | CC(C)COc1cccc(-c2cc(C(=O)N/N=C/c3ccncc3)c3ccccc3n2)c1 | inconclusive [inhibitor, single point]
11 | O=c1[nH]c2cc(Cl)cc(Cl)c2[nH]c1=O | inconclusive [inhibitor, partial curve, poor fit]
12 | COc1ccc(CC(=O)Nc2cc(S(=O)(=O)N3CCCC3)ccc2Cl)c(OC)c1 | inconclusive [inhibitor, single point]
13 | Cc1ccccc1-n1c(SCC(=O)Nc2ccccc2Cl)nc2n[nH]c(C)c2c1=N | inconclusive [inhibitor, single point]
14 | O=[N+]([O-])c1ccc(N2N=C(c3ccccc3)CC2c2ccccc2O)cc1 (configuration not stated) | inconclusive [inhibitor, full curve]
15 | CCCOc1ccc(Cc2c(O)nc(N)[nH]c2=O)cc1C | inactive
16 | COc1ccc(-c2nc(SC(C)C(=O)NCC3CCCO3)n[nH]2)cc1 (configuration not stated) | inconclusive [inhibitor, single point]
17 | Cc1sc2nc(CSCC(=O)NC3(C#N)CCCCC3)[nH]c(=O)c2c1C | inconclusive [inhibitor, partial curve, poor fit]
